Results reported in patent US12129305B2, “Targeting CLPTM1L for treatment and prevention of cancer” (The Medical College of Wisconsin, Inc., priority 2018, dated 2024).

Tests used:
[1] = test system: Human ovarian tumor cells; test: chemoresistance conferred by conditioned supernatants; assay type: cell-based; conditions: supernatants pre-treated with 100 nM 102-5 overnight; 40 μM carboplatin
Description: (A) Flow cytometry histograms of fluorescent labeling of live A549 cells with 102-5 anti-CLPTM1L primary and Alexafluor-488-conjugated secondary antibodies. (B) Relative viability (MTS) of A549 cells (vector control, or with CLPTM1L shRNA knockdown (shCLPTM1L) after exposure to cisplatin and culture supernatants from either vector control or CLPTM1L shRNA cells that were untreated or pre-treated with cisplatin (x axis). **p=0.003, ***p=0.0001. (C) Relative killing (live imaging cytotoxicity) of Panc1 pancreatic tumor cells after 24-hour treatment with 100 nM gemcitabine and 72-hour culture supernatants that were either untreated or pre-treated with 20 nM gemcitabine. (D) Relative killing by 40 μM carboplatin (live imaging cytotoxicity) of ovarian tumor cells treated with supernatants from control or 10 μM carboplatin-conditioned A2780 donor cells at 60 hours post-carboplatin treatment. Supernatants in the 102-5 groups were pre-treated with 100 nM 102-5 anti-CLPTM1L overnight. *p<0.05, **p<0.005.
Fresh media was placed on 10 cm tissue culture dishes of sub-confluent tumor cells (donor cells), which were then treated as described, carboplatin pre-treatment supernatants after 48 hours of treatment and gemcitabine pre-treatment supernatants after 72 hours of treatment. […]

[2] = test system: Caspase-3 cleavage and Akt phosphorylation in SL3cis; test: Western blotting of SL3cis lysates for caspase cleavage and Akt phosphorylation; assay type: cell-based, human
Protocol: (A) A2780 apoptotic killing (casp 3/7 live imaging) after 36 hour mAb treatment (scFv clones 102-4a left, 102-5a right) and 24-hour carboplatin treatment. (B) Dose-response to up to 20 μM carboplatin in resistant A2780 cells treated with either control IgG1 or 102-5, relative to 0 carboplatin controls. (C) Kinetic killing assay (live imaging) in A2780 with human anti-CLP™1L scFv and/or 10 μM carboplatin treatment. *p<0.05, **p<0.005, ***p<0.0005. (D) Western blotting and densitometry for Akt and phospho-Akt (T308) in A2780 andA2780cis. (E) Cisplatin viability (MTT) inhibition curves for SL3 sensitive (parental) and resistant (SL3cis) tumor spheroids, pAkt (T308) and total Akt western blots on SL3 and SL3cis spheroid lysates (inset). (F) Viability (MTT) of SL3cis spheroids after 16 days of growth, treated with cisplatin and/or 102-5 anti-CLPTM1L at the indicated concentrations beginning at 4 days post-seeding. *p<0.05, **p<0.005. (G) Photomicrographs of SL3cis spheroids after 16 days of growth, treated with cisplatin and/or 102-5 anti-CLPTM1L. […]
Cells were lysed with 100 μL of 1× NP40 lysis buffer containing proteinase inhibitors, sheared 10 times with a 28-gauge needle, spun at 16,000×g for 30 minutes, normalized by protein concentration as determined by the Bradford method, and the supernatant boiled for 5 minutes. Twenty microliters of normalized lysate were resolved by SDS-PAGE on 10% acrylamide gels at 150 volts for 1 hour, transferred by iBlot dry transfer (Life Technologies), blocked for 2 hours with TBST 10% milk, incubated with primary antibodies at 1:1000 in TBST 5% milk at 4C overnight with rocking, washed 3×5 minutes with TBST, incubated with secondary anti-rabbit-HRP (Santa Cruz Biotechnology) or goat anti-human-HRP (Invitrogen MH1715) at 1:10,000 in TBST 5% milk for 2 hours with rocking, washed 5×10 minutes with TBST, and signal analyzed using a Biorad Chemidoc XRS. […] Quantitation of Western analyses of three independent cultures was done using Image J software (24).

[3] = test system: pancreatic adenocarcinoma; test: syngeneic orthotopic mouse models of pancreatic adenocarcinoma; conditions: in vivo
[4] = kidney and liver histology and cleaved Caspase 3 IHC; assay type: in vivo; conditions: 10 mg/kg weekly I. P. for 35 days
[5] = test system: lung (A549) and ovarian (A2780) tumor cells; test: indirect flow cytometry, cell surface binding; conditions: anti-Human IgG alexafluor 488 secondary
Protocol: Indirect flow cytometry was performed using 102-5 as a primary and anti-Human IgG (H+L) preadsorbed, alexafluor 488 conjugated secondary antibody.
Tumor cells were harvested by trypsinization and suspended in cold PBS, 10% FBS. 05% NaN3. 100 μL of cell suspension was added to 12×75 mm polystyrene tubes. 10 μg/mL of primary antibody diluted in PBS 3% BSA was added and tubes were incubated at 4° C. in the dark for 45 minutes. After washing 3 times in cold PBS, cells were resuspended in rabbit anti-Human Fc (H&L)-Alexafluor 488 (Abcam) in PBS 3% BSA and incubated at 4C in the dark for 30 minutes. After washing 3 times in cold PBS, cells were suspended in 500 μL cold PBS, 3% BSA, 0.05% NaN3 and analyzed on an Accuri C6 flow cytometer. Cells were gated for live cells based on scatter and fluorescence was plotted on a histogram using Flowing Software 2 (Turku Bioimaging).

B1: 102-5: Human anti-CRR9/CLPTM1L IgG1; heavy chain V SEQ ID NO:30, light chain V SEQ ID NO:31 (antibody, V domains shown)
VH: EVQLLESGGGLVQPGGSLRLSCAASGFSFSSYEMNWVRQAPGKGPEWISYISSGGGTIYYADSVRGRFTISRDNSNNTLYLQMNSLRPDDTAIYYCARDRGRKWLQLLFDSWGQGTLVTVSS
VL: QAVLTQPPSASGTPGQKVTISCSGSSSNIGSNTVNWYQQLPGTAPKLLIYTNNQRPSGVPDRFSGSKSGASASLAISGLQSKDEADYYCAAWDDSLNGWVFGGGTKLTVLG
modifications: Synthetic- Anti-CRR9/CLPTM1L clone 102-5 heavy chain V; Synthetic- Anti-CRR9/CLPTM1L clone 102-5 light chain V
In the case of B1, the “chemoresistance conferred by conditioned supernatants” value [1] is reported as “abrogated”, the “Akt phosphorylation at threonine 308” value ([2]; SL3cis spheroids) is reported as “abrogated” and the Caspase-3 cleavage ([2]; SL3cis spheroids, 16 days of growth) is reported as “Caspase-3 cleavage was induced”. For the same molecule, the “Akt phosphorylation at threonine 308” value ([2]; monolayer cultures of SL3cis cells) was “dose-dependent inhibition of Akt phosphorylation at threonine 308”, the survival [3] was “prolonged survival was observed” and the tumor size [3] was “tumor shrinkage was observed”. The tissue toxicity [4] was “No tissue toxicity was evident” and the cell surface binding [5] was “binding of 102-5 to the surface of lung (A549) and ovarian (A2780) tumor cells”.
